Test results from PubChem BioAssay AID1460 (National Center for Advancing Translational Sciences (NCATS), 2008).
Values joined by “and” are separate entries in the source; they are usually repeats but may differ in a detail not shown here. Identical values can stand only once. About 5,800 (2.1%) of roughly 270,000 compounds were called active. The inconclusive results got no clear call from the source; some entries with a clear call stand among them for comparison. The call rests on the fitted dose curve; in most records, active means well fitted inhibition curve with a large enough effect; inconclusive means small, poorly fitted or top-dose-only effect; inactive means flat fitted curve, though single readings scatter. Potencies beside an inconclusive call are fits to weak or partial responses and may not hold up.

What follows are molecules tested against Microtubule-associated protein tau (Homo sapiens) (UniProt P10636) (assay: qHTS for Inhibitors of Tau Fibril Formation, Thioflavin T Binding). Conditions: recombinant tau K18 P301L (four-repeat tau fragment), heparin-induced fibrillization, ThT fluorescence; series mostly up to 57.4 µM; activity, negative = inhibition: at the top concentration.
Procedure, shortened: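 Recombinant human tau K18 fragment […] carrying P301L, 15 uM unlabeled plus 0.24 uM Alexa 594-labeled, was fibrillized with 20 uM heparin in 100 mM sodium acetate pH 7 for 6 hr at 37 C; 30 uM ThT fluorescence read after 1 hr.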
Further: nearly all actives have a fitted effect of over 55% in size.
On the % scale 0 is the no-effect control and ±100 the full control effect; potency means the concentration at half of the fitted maximal effect; tags describe the fitted curve by direction and shape.

UniProt P10636, sequence (P10636 whole entry, looked up, the tested form may be a part): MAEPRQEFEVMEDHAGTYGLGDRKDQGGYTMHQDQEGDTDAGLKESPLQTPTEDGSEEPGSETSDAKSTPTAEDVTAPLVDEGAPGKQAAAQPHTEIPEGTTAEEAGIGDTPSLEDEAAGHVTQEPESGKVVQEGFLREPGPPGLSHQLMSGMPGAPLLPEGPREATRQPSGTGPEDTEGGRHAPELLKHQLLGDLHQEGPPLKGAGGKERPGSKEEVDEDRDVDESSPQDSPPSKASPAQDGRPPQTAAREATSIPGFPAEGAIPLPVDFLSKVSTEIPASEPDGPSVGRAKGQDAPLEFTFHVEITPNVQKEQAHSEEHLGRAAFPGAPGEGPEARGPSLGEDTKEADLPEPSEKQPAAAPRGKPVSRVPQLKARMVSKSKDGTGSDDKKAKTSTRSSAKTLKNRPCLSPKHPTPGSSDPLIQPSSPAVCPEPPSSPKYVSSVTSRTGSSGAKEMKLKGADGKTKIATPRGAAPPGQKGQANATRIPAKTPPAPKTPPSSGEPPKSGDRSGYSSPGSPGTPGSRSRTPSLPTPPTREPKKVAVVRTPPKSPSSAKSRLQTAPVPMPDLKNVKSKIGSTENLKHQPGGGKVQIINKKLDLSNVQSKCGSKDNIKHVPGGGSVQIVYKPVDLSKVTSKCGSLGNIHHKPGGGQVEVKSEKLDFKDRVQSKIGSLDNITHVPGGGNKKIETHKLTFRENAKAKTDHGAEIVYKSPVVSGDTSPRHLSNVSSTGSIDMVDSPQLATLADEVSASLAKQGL

`Cc1nn(CC(=O)N/N=C/c2ccc(F)cc2)c(C)c1[N+](=O)[O-]` was tested. Which “activity, negative = inhibition” value did it give?
Its value is inactive: -6.13%.

For `CCN(CC)CCNC(=O)c1cc(-c2ccc(Br)s2)nc2ccccc12`, which “activity, negative = inhibition” value is on record?
Its value is inactive: -15.4%.

How did the Potency turn out when `COc1ccc(N=c2oc3c(OC)cccc3cc2C(=O)NCc2ccco2)cc1OC` was run?
The Potency was inconclusive: 1.12 µM [inhibitor, full curve].

Which Potency does the source give for `COC(=O)C(=Nc1ccccc1)/C(C(=O)C(=O)N(C)c1ccccc1)=C(\O)c1ccc(Cl)cc1` here?
The Potency was inconclusive: 12.6 µM [inhibitor, partial curve].

`Cc1ccccc1OCC(=O)Nc1ccccc1-c1ccccc1NC(=O)COc1ccccc1C` was tested. Which “activity, negative = inhibition” value did it give?
The value was inactive: -17.1%.

How did the Potency turn out when `Cc1[nH]n(-c2ccccc2)c(=O)c1N=Nc1ccccc1` was run?
The Potency was inconclusive: 7.94 µM [inhibitor, full curve].

For `CCN1C(=O)c2ccccc2S(=O)c2ccc(C(=O)NCCCN3CCCC3=O)cc21` (stereo unspecified), which “activity, negative = inhibition” value is on record?
The value was inactive: -0.64%.

With `CN(C)S(=O)(=O)c1ccc(C(=O)Nc2ccccc2SCCC#N)cc1` as the molecule, how does the “activity, negative = inhibition” value read?
The value was inactive: -14.9%.

With `Cc1ccc(NS(=O)(=O)c2cnc(N)nc2)c(C)c1` as the molecule, how does the “activity, negative = inhibition” value read?
Its value is inactive: 0.877%.

`CS/C(N)=N/N=C/c1ccc2c(c1)OCO2` was tested. Which Potency did it give?
Its Potency is inconclusive: 28.2 µM [inhibitor, single point].

`COc1ccc(-c2cc(-c3cc(F)ccc3O)[nH]n2)cc1OC` was tested. Which Potency did it give?
The Potency was inconclusive: 2.51 µM [inhibitor, partial curve].

With `COc1ccc(NC(=O)c2ccccn2)cc1` as the molecule, how does the Potency read?
Its Potency is inconclusive: 39.8 µM [inhibitor, single point].

For `CCN(CC)CCNC(=O)C1CCN(c2cc(C)nc3c(-c4ccc(Cl)cc4)c(C)nn23)CC1`, which Potency is on record?
The Potency was inconclusive: 20 µM [inhibitor, single point].

Which Potency does the source give for `O=Cc1ccc(OCc2cccc(C(F)(F)F)c2)cc1O` here?
The Potency was inconclusive: 15.8 µM [inhibitor, partial curve].

For `CCOc1ccc(-c2n[nH]c(C)c2Oc2ccccc2OC)c(O)c1`, which “activity, negative = inhibition” value is on record?
Its value is inactive: -5.12%.

For `CS(=O)(=O)N(Cc1ccccc1)c1ccc(C(=O)N2CCN(c3cccc(Cl)c3)CC2)cc1`, which “activity, negative = inhibition” value is on record?
Its value is inactive: -14.4%.

Which Potency does the source give for `CC1(C)Cc2c(C#N)c(N3CCN(C(=O)c4ccccc4Cl)CC3)nc(-c3ccco3)c2CS1` here?
The Potency was inconclusive: 20 µM [inhibitor, partial curve].

`COc1ccc(OC)c(C(=O)c2c(C)oc3cc([N+](=O)[O-])c(O)c([N+](=O)[O-])c23)c1` was tested. Which Potency did it give?
The Potency was active: 12.6 µM.

`Cc1ccc(Nc2nc(N)c([N+](=O)[O-])c(NCc3ccco3)n2)cc1C` was tested. Which Potency did it give?
The Potency was active: 15.8 µM.

With `CCOC(=O)c1cccc(NC(=O)c2ccc3nc(C(C)C)oc3c2)c1` as the molecule, how does the Potency read?
The Potency was inconclusive: 12.6 µM [inhibitor, partial curve, poor fit].

Which Potency does the source give for `O=c1oc(-c2ccco2)nc2sc3c(c12)CCCC3` here?
The Potency was inconclusive: 12.6 µM [inhibitor, partial curve].

`CC(C)NC(=O)CSc1nc(-c2cccs2)cc(-c2ccccc2)c1C#N` was tested. Which “activity, negative = inhibition” value did it give?
Its value is inactive: -1.12%.

How did the Potency turn out when `COc1ccc2nc(NC(=O)c3nc(S(=O)(=O)Cc4ccccc4)ncc3Cl)sc2c1` was run?
The Potency was active: 8.91 µM.

`Cc1ccc(NC(=O)CSc2n[nH]c(-c3ccc(F)cc3)n2)cc1F` was tested. Which “activity, negative = inhibition” value did it give?
Its value is inactive: 2.22%.

Which “activity, negative = inhibition” value does the source give for `CSc1cccc(NC(=O)CC(c2cccs2)N2Cc3ccccc3C2=O)c1` (stereo unspecified) here?
Its value is inactive: 11.3%.

`Cc1ccc(OCC(=O)NCC(c2ccc(Cl)cc2)N2CCCCC2)cc1` (stereo unspecified) was tested. Which “activity, negative = inhibition” value did it give?
The value was inactive: -4.65%.

Which Potency does the source give for `Nc1sc2c(c1C(=O)NCCc1ccccc1)CCC2` here?
The Potency was inconclusive: 39.8 µM [inhibitor, single point].

`Cc1cc(C(=O)Nc2ccccc2C(=O)O)ccc1NC(=O)COc1cccc([N+](=O)[O-])c1` was tested. Which Potency did it give?
Its Potency is inconclusive: 8.91 µM [inhibitor, partial curve].

`CCOC(=O)/C(=C\c1ccc([N+](=O)[O-])cc1)C(=O)c1cc(C(C)=O)c(Nc2ccccc2)s1` was tested. Which Potency did it give?
The Potency was inconclusive: 25.1 µM [inhibitor, partial curve].

How did the Potency turn out when `O=C1NC(=O)/C(=C/c2cccc(O)c2)N1` was run?
Its Potency is inconclusive: 39.8 µM [inhibitor, single point].

For `Cc1ccc(C)c(CN2C(=O)c3ccccc3S(=O)(=O)c3ccc(C(=O)N4CCc5ccccc54)cc32)c1`, which “activity, negative = inhibition” value is on record?
The value was inactive: -2.6%.

With `Cc1ccc(NS(=O)(=O)c2ccc(C(=O)N3CCN(c4ccccn4)CC3)cc2)cc1` as the molecule, how does the “activity, negative = inhibition” value read?
Its value is inactive: -12.5%.

Which “activity, negative = inhibition” value does the source give for `CC(Sc1nc(-c2ccccc2)cc(C(F)(F)F)n1)C(=O)Nc1sc2c(c1C#N)CCC2` (stereo unspecified) here?
The value was inactive: -4.42%.

Which Potency does the source give for `CCN(c1ccc(C)cc1)S(=O)(=O)c1nnc(NC(=O)C2CCCCC2)s1` here?
The Potency was inconclusive: 25.1 µM [inhibitor, single point].

`COc1c(C)cccc1C(=O)Nc1ccc(N2CCOCC2)c(Cl)c1` was tested. Which Potency did it give?
Its Potency is inconclusive: 28.2 µM [inhibitor, partial curve, poor fit].

How did the Potency turn out when `O=C(O)CN1C(=O)C2C3CC(C2C1=O)C1C(c2ccc(F)cc2)c2sc(=O)[nH]c2SC31` (stereo unspecified) was run?
Its Potency is inconclusive: 22.4 µM [inhibitor, partial curve].

For `O=C(Cc1cc(=O)[nH][nH]1)N/N=C/c1c(Cl)cccc1Cl`, which Potency is on record?
Its Potency is inconclusive: 1.78 µM [inhibitor, full curve] and inconclusive: 28.2 µM [inhibitor, single point].

With `CCCCNC(=O)c1ccc2nc(-c3ccco3)c(-c3ccco3)nc2c1` as the molecule, how does the Potency read?
Its Potency is active: 15.8 µM.

With `COc1ccc(Cl)cc1NS(=O)(=O)c1ccc(S(=O)(=O)N2CCCC2)cc1` as the molecule, how does the “activity, negative = inhibition” value read?
The value was inactive: -5.54%.

With `CN(C)c1ccc(C2CC(c3ccccc3)=Nc3nc(-c4ccccc4)cn32)cc1` (stereo unspecified) as the molecule, how does the Potency read?
Its Potency is inconclusive: 15.8 µM [inhibitor, partial curve].

How did the “activity, negative = inhibition” value turn out when `COC(=O)CNC(=O)C1(C)C=CC2(CCCCC2)N1C(=O)OC` (stereo unspecified) was run?
The value was inactive: 3.62%.

`CC1=C(C)C(=O)C(N2CCOCC2)=CC1=O` was tested. Which Potency did it give?
The Potency was inconclusive: 31.6 µM [inhibitor, single point].

`COc1ccc(-c2csc(NC(=O)CSc3ccc(Br)cc3)n2)c(OC)c1` was tested. Which “activity, negative = inhibition” value did it give?
Its value is inactive: -16.1%.

How did the Potency turn out when `COc1cc(/C=N/n2c(C)n[nH]c2=S)ccc1OCc1ccccc1` was run?
The Potency was inconclusive: 35.5 µM [inhibitor, partial curve].

With `O=C(CC1SC(=Nc2ccccc2)N(CCCO)C1=O)Nc1ccc(Cl)cc1` (stereo unspecified) as the molecule, how does the “activity, negative = inhibition” value read?
The value was inactive: 4.77%.

How did the Potency turn out when `CCn1nnc2cc(C(=O)Nc3cccc(Cl)c3C)ccc21` was run?
Its Potency is inconclusive: 12.6 µM [inhibitor, single point].
